Our source for the T/C values is PubChem BioAssay AID248 (DTP/NCI, 2004).

The test has as its system L1210 leukemia ip in BDF1 mice, survival T/C. The test can be described thus: NCI In Vivo Anticancer Drug Screen. Data for tumor model L1210 Leukemia (intraperitoneal) in B6D2F1 (BDF1) mice. Particulars: endpoint: mean survival time, higher = longer survival.

Inconclusive results and toxic doses are left out. For part of its entries the source gives two or more results. This is not the full list of results. An entry can have further records. Results that share an entry are repeated measurements in other runs, samples, wells, individuals or studies.

On to `Cc1ccnc(NS(=O)(=O)c2ccc(N=Nc3nc4[nH]c(N)nc(=S)c4[nH]3)cc2)n1`, for which the T/C (dose: 12.5 mg/kg/injection, schedule: Q04DX003 (ip), vehicle: Klucel (hydroxypropylcellulose) (HPC)) is 107 % of control, 156 % of control, 157 % of control.

Turning to `N#[N+]c1cnc([O-])[nH]c1=O`, the T/C (dose: 2.5 mg/kg/injection, schedule: Q01DX Z (ip), vehicle: saline) was 109 % of control and 158 % of control. With `O=C(c1ccccc1)c1cc(-c2ccccc2)n(C2CCCCC2)c1`, where the note is “dose: 100.0 mg/kg/injection, schedule: Q01DX009 (ip), vehicle: saline with Tween-80”, the T/C was 92 % of control and 179 % of control.

In the case of `CCOC(=O)c1cc(N(CCOS(C)(=O)=O)CCOS(C)(=O)=O)ccc1N`, the T/C (dose: 5.0 mg/kg/injection, schedule: Q01DX015 (ip), vehicle: saline) was 118 % of control and 154 % of control.

Take `OCCOCCN1CCN(CC/C=C2\c3ccccc3Sc3ccc(C(F)(F)F)cc32)CC1`: for the setting “dose: 23.3 mg/kg/injection, schedule: Q01DX015 (ip), vehicle: saline”, the T/C is 94 % of control and 152 % of control.

Turning to `O=C(O)c1cc[c]([Hg][S]c2ncnc3nc[nH]c23)cc1`, the T/C (dose: 25.0 mg/kg/injection, schedule: Q01DX Z (ip), vehicle: carboxymethylcellulose (CMC)) is 119 % of control and 152 % of control.

Take `CC1(C)OCC(CO)(Nc2nc(N3CC3)nc(N3CC3)n2)CO1`: for the setting “dose: 5.0 mg/kg/injection, schedule: Q01DX009 (ip), vehicle: saline”, the T/C is 108 % of control and 165 % of control.

As to `OCC1OC(n2cnc3c(=S)nc[nH]c32)C(O)C1O` (centres undefined), for the setting “dose: 2000.0 mg/kg/injection, schedule: Q01DX001 (ip), vehicle: saline”, the T/C is 114 % of control and 159 % of control. As to `O=C1C(NCCO)=C(N2CC2)C(=O)C(NCCO)=C1N1CC1`, for the setting “dose: 0.75 mg/kg/injection, schedule: Q01DX001 (ip), vehicle: saline”, the T/C was 86 % of control and 198 % of control.
